The results in this text go back to publication PMC3253811.

Chains of the proteins cited; added tags and fusions are not shown. Lines headed by an entry give the natural chain unless they say otherwise; changes in a name come on top. Residues count along the entry.
UniProt Q96EP0: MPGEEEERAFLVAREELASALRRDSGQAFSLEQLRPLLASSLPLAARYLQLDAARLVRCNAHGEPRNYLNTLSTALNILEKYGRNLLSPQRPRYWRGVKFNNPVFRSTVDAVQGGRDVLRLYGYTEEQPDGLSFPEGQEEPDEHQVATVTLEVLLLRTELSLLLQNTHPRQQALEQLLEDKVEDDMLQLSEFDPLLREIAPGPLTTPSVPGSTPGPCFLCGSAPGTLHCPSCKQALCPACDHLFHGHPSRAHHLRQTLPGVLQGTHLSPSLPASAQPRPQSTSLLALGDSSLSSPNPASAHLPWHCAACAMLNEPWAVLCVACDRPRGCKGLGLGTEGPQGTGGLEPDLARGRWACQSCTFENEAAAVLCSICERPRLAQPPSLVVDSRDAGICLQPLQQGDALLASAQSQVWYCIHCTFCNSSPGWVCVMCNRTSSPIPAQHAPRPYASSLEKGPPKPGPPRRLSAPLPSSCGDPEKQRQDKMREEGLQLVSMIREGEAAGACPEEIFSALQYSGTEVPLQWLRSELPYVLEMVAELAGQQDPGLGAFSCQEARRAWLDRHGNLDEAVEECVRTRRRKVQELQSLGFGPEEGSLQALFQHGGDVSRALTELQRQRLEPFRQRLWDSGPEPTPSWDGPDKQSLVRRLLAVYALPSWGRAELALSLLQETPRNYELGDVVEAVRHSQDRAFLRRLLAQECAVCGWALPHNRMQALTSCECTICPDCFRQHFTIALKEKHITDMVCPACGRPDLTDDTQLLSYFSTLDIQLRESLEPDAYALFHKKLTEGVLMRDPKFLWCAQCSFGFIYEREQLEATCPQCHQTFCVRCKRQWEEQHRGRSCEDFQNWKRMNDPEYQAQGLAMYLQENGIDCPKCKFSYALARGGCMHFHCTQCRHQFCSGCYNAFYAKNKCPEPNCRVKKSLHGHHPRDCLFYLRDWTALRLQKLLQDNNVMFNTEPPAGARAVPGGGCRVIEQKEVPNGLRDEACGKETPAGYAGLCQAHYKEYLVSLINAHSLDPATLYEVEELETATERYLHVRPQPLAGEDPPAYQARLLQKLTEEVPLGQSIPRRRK
GFP fusion protein of the UBA domain of Hoip (residues 537-686): residues 537-686 of Q96EP0

No constants are given. Whether binding was seen depends on the method and setting. Binding seen in cells or lysates may run through a third protein. Some binding calls cover weakened binding; strength is not graded here. Tags and fused reporters may be left off the sequences shown.

For test [1], the target named is T1, GFP-Sharpin (full length, amino acids 1-382) (rat) (UniProt Q9EQL9).
T1 sequence: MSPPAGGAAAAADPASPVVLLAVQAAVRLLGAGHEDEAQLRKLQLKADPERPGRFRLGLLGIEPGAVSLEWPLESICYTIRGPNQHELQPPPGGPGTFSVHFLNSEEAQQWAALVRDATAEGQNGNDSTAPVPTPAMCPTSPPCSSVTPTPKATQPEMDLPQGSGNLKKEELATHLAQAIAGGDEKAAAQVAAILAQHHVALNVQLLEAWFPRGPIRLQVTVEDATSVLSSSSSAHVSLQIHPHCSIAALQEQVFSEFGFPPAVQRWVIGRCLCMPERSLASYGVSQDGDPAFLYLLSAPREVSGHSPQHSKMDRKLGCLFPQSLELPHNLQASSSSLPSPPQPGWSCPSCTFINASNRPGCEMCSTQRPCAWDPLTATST
Briefly: co-IP; coexpression in HEK293 cells, RIPA lysate, GFP fusion precipitated with GFP-Trap matrix, Western blot (anti-GFP, anti-Flag). On the technique in general: In western blotting, separated proteins are transferred to a membrane and probed.

In test [2] the target is T2, GFP fusion of the isolated Ubl domain of Sharpin (residues 171-310) (rat) (UniProt Q9EQL9).
T2 sequence: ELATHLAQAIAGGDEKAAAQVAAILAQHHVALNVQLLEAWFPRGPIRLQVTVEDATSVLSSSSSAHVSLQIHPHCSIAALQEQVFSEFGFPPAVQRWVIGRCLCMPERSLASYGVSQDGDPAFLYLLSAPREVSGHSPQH
Described as above.

Test [3] concerns the target T3, GFP as a fusion with full length Sharpin (amino acids 1-382), in Huh-7 cells (rat) (UniProt Q9EQL9).
T3 sequence: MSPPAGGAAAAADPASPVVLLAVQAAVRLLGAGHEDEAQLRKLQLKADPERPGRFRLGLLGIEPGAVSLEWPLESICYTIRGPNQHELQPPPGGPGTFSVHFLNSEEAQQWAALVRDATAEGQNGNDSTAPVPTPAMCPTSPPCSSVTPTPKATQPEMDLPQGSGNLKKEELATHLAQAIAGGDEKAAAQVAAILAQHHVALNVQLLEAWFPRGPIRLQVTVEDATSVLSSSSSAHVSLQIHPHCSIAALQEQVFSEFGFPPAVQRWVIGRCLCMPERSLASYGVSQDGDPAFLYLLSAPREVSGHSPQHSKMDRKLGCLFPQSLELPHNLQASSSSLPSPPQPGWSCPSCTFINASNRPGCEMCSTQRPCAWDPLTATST
As to the kind of experiment: co-IP; GFP-Sharpin expressed in Huh-7 cells, lysate, GFP-Trap matrix, Western blot with antibodies against human Hoip (endogenous).

For test [4], the target named is GFP fusion protein of the UBA domain of Hoip (residues 537-686) (UniProt Q96EP0). Briefly: co-IP; coexpression in HEK293 cells, RIPA lysate, GFP fusion precipitated with GFP-Trap matrix, Western blot (anti-GFP, anti-Flag).

With “Flag-tagged Hoip (from UniProt Q96EP0 1-1072) (enzyme)”, the binding entry in test [1] and in test [2] was “binds” each time.
As for “Flag-tagged Hoip fragment, residues 1-396 (from UniProt Q96EP0 1-396) (domain or fragment)”, in test [1], the binding entry is on record as “no binding”.
Regarding “Flag-tagged Hoip fragment, residues 1-602 (from UniProt Q96EP0 1-602) (domain or fragment)”, the binding entry in test [1] is “binds weakly”.
On the same count and under the same terms, to “Flag-tagged Hoip fragment, residues 1-686 (from UniProt Q96EP0 1-686) (domain or fragment)” belongs “binds”.
“endogenous Hoip of Huh-7 hepatocarcinoma cells (from UniProt Q96EP0 1-1072) (enzyme)”: the binding result in test [3] is “binds”.

B1: Myc-tagged Sharpin (protein, UniProt Q9EQL9 1-381)
chain: MSPPAGGAAAAADPASPVVLLAVQAAVRLLGAGHEDEAQLRKLQLKADPERPGRFRLGLLGIEPGAVSLEWPLESICYTIRGPNQHELQPPPGGPGTFSVHFLNSEEAQQWAALVRDATAEGQNGNDSTAPVPTPAMCPTSPPCSSVTPTPKATQPEMDLPQGSGNLKKEELATHLAQAIAGGDEKAAAQVAAILAQHHVALNVQLLEAWFPRGPIRLQVTVEDATSVLSSSSSAHVSLQIHPHCSIAALQEQVFSEFGFPPAVQRWVIGRCLCMPERSLASYGVSQDGDPAFLYLLSAPREVSGHSPQHSKMDRKLGCLFPQSLELPHNLQASSSSLPSPPQPGWSCPSCTFINASNRPGCEMCSTQRPCAWDPLTATST
On to B1, for which the binding result in test [4] was “binds”.
